Source: the supplement of paper PMC4967469
Lines with a small IC50 respond at low doses; a fit beyond the top or the lowest dose is shown as a bound at that dose. AUC sums up the same curve from the lowest dose to the 256-fold higher top dose: 1 means no effect, lower means more sensitive. For some of these results: The top dose, if marked as inferred, was calculated from the reported fits.

Tests used:
Test in all cases: Viability of human cancer cell lines after 72 h of drug (GDSC screen)
[1] = compound: Nc1ccccc1NC(=O)c1ccc(CNC(=O)OCc2cccnc2)cc1 [MS-275]; conditions: top dose 5 µM; top dose inferred
Method: (§1)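 Human cancer cell lines in 384-well plates, medium with 10% serum, drug for 72 h over a 256-fold dose range (nine 2-fold or five 4-fold steps up to the top dose). Adherent lines were fixed and stained with the nucleic acid dye Syto60, suspension lines read with resazurin; signal relative to control wells, capped at 0 and 100%. One two-parameter sigmoid per drug and line, fitted in a mixed model over all curves with the slope shared within a line.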

[2] = compound: CCN1CCN(Cc2ccc(NC(=O)c3ccc(C)c(/C=C/c4cnc5[nH]ccc5c4OC)c3)cc2C(F)(F)F)CC1 [HG-6-64-1]; conditions: top dose 5.12 µM; top dose inferred
Method: as §1

[3] = compound: CCNC(=O)C[C@@H]1N=C(c2ccc(Cl)cc2)c2cc(OC)ccc2-n2c(C)nnc21 [I-BET-762]; conditions: top dose 20 µM; top dose inferred
Method: as §1

[4] = compound: COc1cc2nccc(Oc3ccc(NC(=O)Nc4cc(C)on4)c(Cl)c3)c2cc1OC [AV-951]; conditions: top dose 0.128 µM; top dose inferred
Method: as §1

[5] = compound: CCc1cncnc1N1CCN(Cc2nc3ccc(C(F)(F)F)cc3[nH]2)CC1 [PF-4708671]; conditions: top dose 10 µM; top dose inferred
Method: as §1

[6] = compound: CC(=O)Nc1cccc(-n2c(=O)n(C3CC3)c(=O)c3c(Nc4ccc(I)cc4F)n(C)c(=O)c(C)c32)c1 [Trametinib]; conditions: top dose 1 µM
Method: as §1

[7] = compound: O=C(NC(COc1ccc2[nH]c(=O)[nH]c2c1)c1ccccc1)c1cccn(Cc2ccc(F)c(F)c2)c1=O [KIN001-244]; conditions: top dose 20 µM; top dose inferred
Method: as §1

Cell Line	AUC [1]	IC50 [1] [µM]	AUC [2]	IC50 [2] [µM]	AUC [3]	IC50 [3] [µM]	AUC [4]	IC50 [4] [µM]	AUC [5]	IC50 [5] [µM]	AUC [6]	IC50 [6] [µM]	AUC [7]	IC50 [7] [µM]
CGTH-W-1 (thyroid, adherent)	0.784	2.12	0.122	< 0.02	0.953	> 20	0.902	> 0.128	0.976	> 10	0.382	0.0297	0.923	> 20
CHP-126 (neuroblastoma, suspension)	0.57	0.489	0.913	> 5.12	0.922	> 20	0.985	> 0.128	0.987	> 10	0.985	> 1	0.889	> 20
CL-11 (large intestine, adherent)	0.958	> 5	0.962	> 5.12	0.965	> 20	0.978	> 0.128	0.976	> 10	0.164	0.00497	0.953	> 20
CMK (acute myeloid leukaemia, suspension)	0.539	0.392	0.726	1.24	0.406	0.721	0.99	> 0.128	0.885	8.04	0.958	> 1	0.832	10.1
COLO-320-HSR (large intestine, suspension)	0.832	2.63	0.85	3.13	0.982	> 20	0.989	> 0.128	0.99	> 10	0.991	> 1	0.878	15.7
COLO-668 (small cell lung carcinoma, adherent)	0.971	> 5	0.804	2.56	0.914	> 20	0.971	> 0.128	0.879	> 10	0.956	> 1	0.876	19.9
COLO-684 (endometrium, suspension)	0.886	> 5	0.906	> 5.12	0.906	> 20	0.971	> 0.128	0.982	> 10	0.977	> 1	0.793	10.4
COLO-800 (melanoma, adherent)	0.963	> 5	0.985	> 5.12	0.945	> 20	0.985	> 0.128	0.987	> 10	0.962	> 1	0.956	> 20
COLO-829 (melanoma, adherent)	0.716	1.73	0.461	0.239	0.91	> 20	0.97	> 0.128	0.934	> 10	0.393	0.0277	0.821	19.8
COR-L88 (small cell lung carcinoma, adherent)	0.449	0.221	0.926	> 5.12	0.958	> 20	0.986	> 0.128	0.928	> 10	0.982	> 1	0.92	> 20
COR-L95 (small cell lung carcinoma, adherent)	0.73	1.59	0.982	> 5.12	0.926	> 20	0.978	> 0.128	0.958	> 10	0.984	> 1	0.899	> 20
COR-L279 (small cell lung carcinoma, suspension)	0.618	0.634	0.986	> 5.12	0.756	6.16	0.989	> 0.128	0.961	> 10	0.974	> 1	0.913	> 20
CP66-MEL (melanoma, adherent)	0.805	2.97	0.944	> 5.12	0.984	> 20	0.986	> 0.128	0.986	> 10	0.153	0.00435	0.887	> 20
CPC-N (small cell lung carcinoma, suspension)	0.607	0.632	0.951	> 5.12	0.853	17.9	0.983	> 0.128	0.969	> 10	0.934	> 1	0.937	> 20
CTB-1 (B-cell lymphoma, suspension)	0.786		0.598	0.654	0.542	1.69	0.943	> 0.128	0.952	> 10	0.944	> 1	0.945	> 20
CTV-1 (acute myeloid leukaemia, suspension)	0.732	1.21	0.244	0.0708	0.942	> 20	0.979	> 0.128	0.954	> 10	0.975	> 1	0.859	11.6
CW-2 (large intestine, adherent)	0.987	> 5	0.989	> 5.12	0.929	> 20	0.983	> 0.128	0.943	> 10	0.927	> 1	0.964	> 20
Calu-6 (lung adenocarcinoma, adherent)	0.88	> 5	0.771	2.25	0.858	> 20	0.984	> 0.128	0.928	> 10	0.201	0.00696	0.898	> 20
D-247MG (glioma, adherent)	0.819	4.32	0.786	3.14	0.932	> 20	0.784	0.0768	0.962	> 10	0.621	0.152	0.871	> 20
